This passage reports binding results from publication PMC10320511.

The chains behind the UniProt entries cited, without tags or fusion partners.
UniProt Q01371: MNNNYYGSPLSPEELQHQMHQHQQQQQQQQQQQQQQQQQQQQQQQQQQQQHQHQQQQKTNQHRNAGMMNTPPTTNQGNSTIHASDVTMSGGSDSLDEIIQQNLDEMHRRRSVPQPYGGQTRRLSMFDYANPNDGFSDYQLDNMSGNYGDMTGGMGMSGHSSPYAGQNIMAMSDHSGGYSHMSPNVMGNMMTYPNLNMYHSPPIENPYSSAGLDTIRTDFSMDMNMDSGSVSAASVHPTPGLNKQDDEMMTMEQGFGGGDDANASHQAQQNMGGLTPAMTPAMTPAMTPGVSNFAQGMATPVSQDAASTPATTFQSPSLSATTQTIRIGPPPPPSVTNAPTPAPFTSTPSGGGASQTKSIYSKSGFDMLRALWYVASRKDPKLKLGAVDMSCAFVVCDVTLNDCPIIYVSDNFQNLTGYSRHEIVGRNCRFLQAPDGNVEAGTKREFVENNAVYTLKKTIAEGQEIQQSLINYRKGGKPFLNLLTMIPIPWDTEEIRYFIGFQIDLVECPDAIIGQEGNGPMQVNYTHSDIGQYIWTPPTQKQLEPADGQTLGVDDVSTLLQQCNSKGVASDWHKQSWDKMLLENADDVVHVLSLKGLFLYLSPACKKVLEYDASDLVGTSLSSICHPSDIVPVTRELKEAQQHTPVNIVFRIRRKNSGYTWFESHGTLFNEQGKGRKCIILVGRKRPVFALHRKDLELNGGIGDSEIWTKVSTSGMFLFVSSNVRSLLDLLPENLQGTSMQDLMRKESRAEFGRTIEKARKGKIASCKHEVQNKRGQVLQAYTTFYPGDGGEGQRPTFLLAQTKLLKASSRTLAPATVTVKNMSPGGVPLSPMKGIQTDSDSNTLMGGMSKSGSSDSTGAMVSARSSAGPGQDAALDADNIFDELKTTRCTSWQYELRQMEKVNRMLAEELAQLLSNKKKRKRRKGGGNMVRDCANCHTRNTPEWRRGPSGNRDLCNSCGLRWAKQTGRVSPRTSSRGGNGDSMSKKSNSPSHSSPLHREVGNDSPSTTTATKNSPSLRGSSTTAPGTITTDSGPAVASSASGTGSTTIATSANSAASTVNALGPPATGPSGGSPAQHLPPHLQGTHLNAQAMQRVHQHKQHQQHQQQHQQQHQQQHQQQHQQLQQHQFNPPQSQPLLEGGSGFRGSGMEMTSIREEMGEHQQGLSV

No constants are given. Whether binding was seen depends on the method and setting. In cells and extracts the contact can be indirect. Sequences can lack the tags named with a protein.

The target in experiment [1] is T1, FRQ Δ482–510, V5H6-tagged (Neurospora crassa) (UniProt P19970).
T1 sequence: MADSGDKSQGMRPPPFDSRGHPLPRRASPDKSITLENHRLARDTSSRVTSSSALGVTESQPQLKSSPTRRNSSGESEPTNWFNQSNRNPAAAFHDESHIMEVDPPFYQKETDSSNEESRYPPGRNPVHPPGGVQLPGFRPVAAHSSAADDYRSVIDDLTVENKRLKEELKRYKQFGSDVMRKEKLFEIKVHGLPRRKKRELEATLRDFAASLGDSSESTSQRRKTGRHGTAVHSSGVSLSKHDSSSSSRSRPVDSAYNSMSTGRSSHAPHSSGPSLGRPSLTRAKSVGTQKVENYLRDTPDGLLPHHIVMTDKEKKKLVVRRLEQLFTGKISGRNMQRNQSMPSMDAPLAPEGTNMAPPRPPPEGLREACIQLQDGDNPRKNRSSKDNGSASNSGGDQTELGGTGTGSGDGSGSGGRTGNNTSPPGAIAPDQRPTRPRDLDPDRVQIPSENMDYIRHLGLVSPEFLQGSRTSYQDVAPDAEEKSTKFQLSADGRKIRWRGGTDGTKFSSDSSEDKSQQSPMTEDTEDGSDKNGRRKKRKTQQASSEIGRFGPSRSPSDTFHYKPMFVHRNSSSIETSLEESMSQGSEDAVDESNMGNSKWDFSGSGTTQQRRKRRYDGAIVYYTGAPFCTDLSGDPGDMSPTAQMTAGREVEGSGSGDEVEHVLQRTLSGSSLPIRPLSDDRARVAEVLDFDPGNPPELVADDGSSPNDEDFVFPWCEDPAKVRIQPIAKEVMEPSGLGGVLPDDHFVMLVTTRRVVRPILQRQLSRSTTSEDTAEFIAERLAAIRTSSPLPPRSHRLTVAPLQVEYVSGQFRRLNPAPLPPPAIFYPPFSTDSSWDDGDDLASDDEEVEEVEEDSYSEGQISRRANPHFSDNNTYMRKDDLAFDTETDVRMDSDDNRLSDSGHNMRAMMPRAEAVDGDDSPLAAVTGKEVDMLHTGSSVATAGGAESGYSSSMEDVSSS
Briefly: co-IP; V5H6-tagged FRQ (wild type or mutant) pulled down with V5 agarose from Neurospora lysate (cultures in the light, 25 °C); 50 mM Hepes pH 7.4, 137 mM NaCl, 10% glycerol, 0.4% NP-40; 4 °C, 2 h; Western blot with FRQ, FRH, WC-1 and WC-2 antibodies. Background: In western blotting, separated proteins are transferred to a membrane and probed.

Experiment [2] concerns the target T2, FRQ Δ801–856, V5H6-tagged (Neurospora crassa) (UniProt P19970).
T2 sequence: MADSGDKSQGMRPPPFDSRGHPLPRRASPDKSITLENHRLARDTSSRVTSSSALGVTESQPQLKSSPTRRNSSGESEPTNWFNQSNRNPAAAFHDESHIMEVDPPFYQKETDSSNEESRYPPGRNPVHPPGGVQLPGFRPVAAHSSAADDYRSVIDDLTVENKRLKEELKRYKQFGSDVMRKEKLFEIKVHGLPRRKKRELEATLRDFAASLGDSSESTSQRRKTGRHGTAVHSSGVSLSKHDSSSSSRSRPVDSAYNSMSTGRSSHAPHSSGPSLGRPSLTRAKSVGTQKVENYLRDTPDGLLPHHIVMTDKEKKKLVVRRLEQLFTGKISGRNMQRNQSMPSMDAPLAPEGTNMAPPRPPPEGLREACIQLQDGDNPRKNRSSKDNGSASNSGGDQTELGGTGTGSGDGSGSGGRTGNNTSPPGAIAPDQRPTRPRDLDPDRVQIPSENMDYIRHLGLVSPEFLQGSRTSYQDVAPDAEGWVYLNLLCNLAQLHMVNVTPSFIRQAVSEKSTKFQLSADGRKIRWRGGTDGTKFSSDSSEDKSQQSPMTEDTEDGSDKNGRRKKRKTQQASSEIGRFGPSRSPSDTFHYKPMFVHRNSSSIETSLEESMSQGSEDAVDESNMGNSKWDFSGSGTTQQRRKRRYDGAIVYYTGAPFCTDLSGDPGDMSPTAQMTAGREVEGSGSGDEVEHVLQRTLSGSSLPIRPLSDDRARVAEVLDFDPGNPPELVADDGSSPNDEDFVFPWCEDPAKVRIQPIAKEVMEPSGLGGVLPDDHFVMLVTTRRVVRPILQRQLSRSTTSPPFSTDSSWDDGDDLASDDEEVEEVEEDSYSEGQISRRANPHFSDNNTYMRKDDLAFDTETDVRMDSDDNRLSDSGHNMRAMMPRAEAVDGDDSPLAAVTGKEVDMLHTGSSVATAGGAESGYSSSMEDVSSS
Described as above.

For the substance “White Collar-1 (WC-1) (from UniProt Q01371 1-1167)”, the binding entry in experiment [1] and in experiment [2] was “no binding” each time.
